From article PMC11900812
These are yes or no findings as the source states them, for the method shown. Binding seen in cells or lysates may run through a third protein. Some entries that bind do so weakly or less than the wild type.

Amino acid sequences for entries named in this document (tags omitted). A change or cut given only in a name is not applied to a line headed by its entry.
UniProt P51617: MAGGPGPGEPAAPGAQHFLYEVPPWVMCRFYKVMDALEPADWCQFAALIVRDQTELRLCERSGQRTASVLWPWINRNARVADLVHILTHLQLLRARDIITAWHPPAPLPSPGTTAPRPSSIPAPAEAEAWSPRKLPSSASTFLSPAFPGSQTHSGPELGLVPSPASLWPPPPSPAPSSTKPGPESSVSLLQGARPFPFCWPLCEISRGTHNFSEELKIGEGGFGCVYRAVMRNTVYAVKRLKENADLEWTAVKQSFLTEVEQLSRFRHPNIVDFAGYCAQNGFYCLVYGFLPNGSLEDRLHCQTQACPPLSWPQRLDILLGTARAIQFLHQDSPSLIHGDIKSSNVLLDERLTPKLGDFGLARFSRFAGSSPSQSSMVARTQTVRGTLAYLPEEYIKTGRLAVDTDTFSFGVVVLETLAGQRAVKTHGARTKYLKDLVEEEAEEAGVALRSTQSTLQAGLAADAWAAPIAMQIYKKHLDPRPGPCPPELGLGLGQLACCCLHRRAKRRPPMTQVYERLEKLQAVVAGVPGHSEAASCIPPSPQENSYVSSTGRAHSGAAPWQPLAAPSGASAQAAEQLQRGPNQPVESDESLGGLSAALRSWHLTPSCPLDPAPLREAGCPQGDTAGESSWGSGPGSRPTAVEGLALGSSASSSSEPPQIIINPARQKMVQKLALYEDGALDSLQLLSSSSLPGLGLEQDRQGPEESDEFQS
UniProt Q92560: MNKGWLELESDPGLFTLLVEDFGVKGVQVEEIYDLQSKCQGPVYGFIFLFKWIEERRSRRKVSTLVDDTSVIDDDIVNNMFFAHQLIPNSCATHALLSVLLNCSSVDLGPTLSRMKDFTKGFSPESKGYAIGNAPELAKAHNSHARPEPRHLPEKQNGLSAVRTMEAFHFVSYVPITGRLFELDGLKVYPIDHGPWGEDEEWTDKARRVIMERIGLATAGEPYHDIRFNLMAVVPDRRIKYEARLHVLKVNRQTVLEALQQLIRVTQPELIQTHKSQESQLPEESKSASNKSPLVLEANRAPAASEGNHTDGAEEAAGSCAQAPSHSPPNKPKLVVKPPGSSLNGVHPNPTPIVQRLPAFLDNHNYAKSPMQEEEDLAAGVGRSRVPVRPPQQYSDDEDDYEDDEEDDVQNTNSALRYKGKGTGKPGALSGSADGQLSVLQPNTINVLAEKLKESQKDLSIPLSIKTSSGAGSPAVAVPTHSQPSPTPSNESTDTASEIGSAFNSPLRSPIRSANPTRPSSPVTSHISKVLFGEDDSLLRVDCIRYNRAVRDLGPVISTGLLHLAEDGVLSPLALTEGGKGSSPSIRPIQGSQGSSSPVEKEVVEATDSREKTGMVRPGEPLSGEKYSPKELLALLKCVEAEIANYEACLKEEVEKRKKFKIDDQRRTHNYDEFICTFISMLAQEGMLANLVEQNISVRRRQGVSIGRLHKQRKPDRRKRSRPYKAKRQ
UniProt Q99836: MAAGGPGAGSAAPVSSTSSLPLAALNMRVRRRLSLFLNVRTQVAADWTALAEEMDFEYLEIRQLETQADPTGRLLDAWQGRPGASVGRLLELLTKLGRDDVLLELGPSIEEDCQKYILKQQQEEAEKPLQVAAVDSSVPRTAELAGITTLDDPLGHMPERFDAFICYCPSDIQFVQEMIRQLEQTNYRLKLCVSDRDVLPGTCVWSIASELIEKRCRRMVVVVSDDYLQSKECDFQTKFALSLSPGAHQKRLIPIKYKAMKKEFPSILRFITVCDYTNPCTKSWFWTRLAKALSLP
UniProt Q9C0F0: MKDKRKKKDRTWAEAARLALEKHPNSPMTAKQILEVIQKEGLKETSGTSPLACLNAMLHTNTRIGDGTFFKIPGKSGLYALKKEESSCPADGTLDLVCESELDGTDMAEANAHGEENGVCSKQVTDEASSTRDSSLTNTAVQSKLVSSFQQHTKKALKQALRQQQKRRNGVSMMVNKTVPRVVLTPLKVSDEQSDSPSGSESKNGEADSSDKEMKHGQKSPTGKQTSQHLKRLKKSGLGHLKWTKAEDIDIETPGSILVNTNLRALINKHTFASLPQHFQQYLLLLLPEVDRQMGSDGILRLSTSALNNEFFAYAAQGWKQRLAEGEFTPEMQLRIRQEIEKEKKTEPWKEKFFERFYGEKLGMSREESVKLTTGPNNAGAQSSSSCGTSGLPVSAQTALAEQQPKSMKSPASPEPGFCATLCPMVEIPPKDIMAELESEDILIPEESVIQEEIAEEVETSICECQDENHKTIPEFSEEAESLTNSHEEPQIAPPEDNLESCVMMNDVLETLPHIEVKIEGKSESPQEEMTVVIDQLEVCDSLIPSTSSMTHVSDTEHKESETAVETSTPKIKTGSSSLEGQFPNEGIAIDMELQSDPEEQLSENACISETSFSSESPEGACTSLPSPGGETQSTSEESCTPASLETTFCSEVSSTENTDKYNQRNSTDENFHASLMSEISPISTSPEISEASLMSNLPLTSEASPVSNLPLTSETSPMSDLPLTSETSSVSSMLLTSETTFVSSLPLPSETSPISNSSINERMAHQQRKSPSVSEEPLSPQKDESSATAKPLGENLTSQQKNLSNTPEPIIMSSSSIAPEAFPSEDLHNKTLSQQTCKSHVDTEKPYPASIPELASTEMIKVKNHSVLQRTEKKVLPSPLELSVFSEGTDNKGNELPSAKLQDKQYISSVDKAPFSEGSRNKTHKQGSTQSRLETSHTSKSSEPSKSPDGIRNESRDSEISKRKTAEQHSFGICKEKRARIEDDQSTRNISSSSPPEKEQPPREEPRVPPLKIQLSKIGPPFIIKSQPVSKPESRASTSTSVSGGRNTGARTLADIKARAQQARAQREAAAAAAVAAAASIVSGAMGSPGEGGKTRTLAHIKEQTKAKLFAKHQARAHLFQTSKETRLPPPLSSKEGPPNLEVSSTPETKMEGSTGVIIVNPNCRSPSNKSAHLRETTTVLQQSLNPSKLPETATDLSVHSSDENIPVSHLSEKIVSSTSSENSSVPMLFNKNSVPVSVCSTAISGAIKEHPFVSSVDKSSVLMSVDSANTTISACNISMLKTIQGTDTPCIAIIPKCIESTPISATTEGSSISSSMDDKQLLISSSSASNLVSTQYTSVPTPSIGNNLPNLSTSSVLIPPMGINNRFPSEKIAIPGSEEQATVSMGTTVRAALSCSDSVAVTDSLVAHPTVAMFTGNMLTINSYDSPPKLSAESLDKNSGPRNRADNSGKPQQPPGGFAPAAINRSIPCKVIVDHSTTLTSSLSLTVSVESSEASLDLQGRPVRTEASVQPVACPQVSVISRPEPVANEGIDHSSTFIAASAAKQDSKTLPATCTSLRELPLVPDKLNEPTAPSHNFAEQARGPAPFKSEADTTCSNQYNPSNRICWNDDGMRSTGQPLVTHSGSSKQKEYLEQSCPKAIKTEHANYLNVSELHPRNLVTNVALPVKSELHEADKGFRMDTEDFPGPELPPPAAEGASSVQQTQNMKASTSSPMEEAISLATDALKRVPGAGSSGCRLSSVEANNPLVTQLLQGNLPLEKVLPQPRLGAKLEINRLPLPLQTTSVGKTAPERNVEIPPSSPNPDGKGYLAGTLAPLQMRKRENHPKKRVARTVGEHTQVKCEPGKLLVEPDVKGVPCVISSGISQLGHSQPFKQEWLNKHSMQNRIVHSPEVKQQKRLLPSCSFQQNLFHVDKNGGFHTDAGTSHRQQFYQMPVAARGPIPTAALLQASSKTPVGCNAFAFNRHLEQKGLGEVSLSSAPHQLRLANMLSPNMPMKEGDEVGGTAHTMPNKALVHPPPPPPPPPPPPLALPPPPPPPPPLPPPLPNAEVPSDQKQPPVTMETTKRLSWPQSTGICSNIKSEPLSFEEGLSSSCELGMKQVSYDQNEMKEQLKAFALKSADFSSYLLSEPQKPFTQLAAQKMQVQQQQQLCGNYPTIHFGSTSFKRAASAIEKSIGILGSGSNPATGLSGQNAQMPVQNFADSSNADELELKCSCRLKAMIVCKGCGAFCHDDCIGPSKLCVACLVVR
UniProt Q76L83: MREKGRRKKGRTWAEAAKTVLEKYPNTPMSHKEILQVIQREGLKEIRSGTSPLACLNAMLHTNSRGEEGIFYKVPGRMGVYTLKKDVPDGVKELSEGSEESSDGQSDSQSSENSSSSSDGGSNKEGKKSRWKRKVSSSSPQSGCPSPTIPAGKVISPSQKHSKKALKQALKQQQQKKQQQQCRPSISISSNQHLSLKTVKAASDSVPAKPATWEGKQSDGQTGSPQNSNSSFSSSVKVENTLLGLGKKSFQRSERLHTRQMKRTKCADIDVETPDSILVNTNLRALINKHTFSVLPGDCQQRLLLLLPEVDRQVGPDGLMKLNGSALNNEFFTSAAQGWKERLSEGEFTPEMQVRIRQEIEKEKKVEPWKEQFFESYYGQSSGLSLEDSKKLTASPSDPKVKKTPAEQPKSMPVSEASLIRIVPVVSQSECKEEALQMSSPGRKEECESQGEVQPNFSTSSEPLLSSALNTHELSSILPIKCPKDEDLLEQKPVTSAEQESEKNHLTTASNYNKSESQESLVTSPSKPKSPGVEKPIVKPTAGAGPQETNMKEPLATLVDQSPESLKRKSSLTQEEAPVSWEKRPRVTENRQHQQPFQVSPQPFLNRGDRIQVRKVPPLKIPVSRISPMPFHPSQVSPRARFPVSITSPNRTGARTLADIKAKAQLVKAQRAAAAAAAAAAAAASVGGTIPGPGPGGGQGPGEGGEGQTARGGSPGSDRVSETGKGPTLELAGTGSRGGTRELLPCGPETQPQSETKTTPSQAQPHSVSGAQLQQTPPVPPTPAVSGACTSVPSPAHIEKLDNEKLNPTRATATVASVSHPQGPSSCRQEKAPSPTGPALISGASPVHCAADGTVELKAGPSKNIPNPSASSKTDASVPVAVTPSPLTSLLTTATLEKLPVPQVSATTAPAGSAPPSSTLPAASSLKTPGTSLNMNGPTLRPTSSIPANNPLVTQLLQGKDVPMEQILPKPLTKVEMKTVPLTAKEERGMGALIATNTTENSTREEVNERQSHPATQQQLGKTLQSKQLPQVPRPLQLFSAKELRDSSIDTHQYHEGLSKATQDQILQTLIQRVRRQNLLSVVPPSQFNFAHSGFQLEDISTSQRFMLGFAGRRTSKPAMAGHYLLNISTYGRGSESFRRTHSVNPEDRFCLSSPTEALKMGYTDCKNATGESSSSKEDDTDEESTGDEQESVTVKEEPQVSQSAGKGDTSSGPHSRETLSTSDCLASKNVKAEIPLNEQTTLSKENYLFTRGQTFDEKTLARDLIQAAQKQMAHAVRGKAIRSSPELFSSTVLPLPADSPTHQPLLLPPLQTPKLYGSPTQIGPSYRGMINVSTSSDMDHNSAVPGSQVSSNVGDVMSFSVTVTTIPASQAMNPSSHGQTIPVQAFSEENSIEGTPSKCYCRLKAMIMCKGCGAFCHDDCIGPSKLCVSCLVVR

B1: IRAK4, endogenous (protein, UniProt Q9NWZ3 1-460)
chain: MNKPITPSTYVRCLNVGLIRKLSDFIDPQEGWKKLAVAIKKPSGDDRYNQFHIRRFEALLQTGKSPTSELLFDWGTTNCTVGDLVDLLIQNEFFAPASLLLPDAVPKTANTLPSKEAITVQQKQMPFCDKDRTLMTPVQNLEQSYMPPDSSSPENKSLEVSDTRFHSFSFYELKNVTNNFDERPISVGGNKMGEGGFGVVYKGYVNNTTVAVKKLAAMVDITTEELKQQFDQEIKVMAKCQHENLVELLGFSSDGDDLCLVYVYMPNGSLLDRLSCLDGTPPLSWHMRCKIAQGAANGINFLHENHHIHRDIKSANILLDEAFTAKISDFGLARASEKFAQTVMTSRIVGTTAYMAPEALRGEITPKSDIYSFGVVLLEIITGLPAVDEHREPQLLLDIKEEIEDEEKTIEDYIDKKMNDADSTSVEAMYSVASQCLHEKKNKRPDIKKVQQLLQEMTAS

Legend:
[1] = biological target: interleukin-1 receptor-associated kinase 1 (IRAK1), endogenous (human (endogenous in PaTu8988, 293T, SW1990)) (UniProt P51617); assay: co-IP; PaTu8988 cell lysates (IP lysis buffer with PMSF and phosphatase inhibitor), primary antibody and protein A/G agarose beads at 4°C overnight, five washes, Western blot; endogenous proteins or indicated plasmids; treatments in some panels: LPS, λ-phosphatase, BAP1 knock-out and rescue, IRAK4 siRNA or overexpression
[2] = biological target: Flag-IRAK1 (WT) (UniProt P51617); assay: as above
[3] = biological target: HA tagged BAP1 (human) (UniProt Q92560); assay: as above
[4] = biological target: interleukin-1 receptor-associated kinase 1 (IRAK1), endogenous (human (endogenous in PaTu8988, 293T, SW1990)) (UniProt P51617); assay: co-IP; SW1990 cells with overexpression of BAP1, co-IP of IRAK1, Western blot
[5] = biological target: BRCA1 Associated Protein-1 (BAP1), endogenous (human (endogenous in PaTu8988)) (UniProt Q92560); assay: co-IP; PaTu8988 cells, nuclear-cytoplasmic separation (extraction kit), then co-IP of BAP1 from the extracts
[6] = biological target: BRCA1 Associated Protein-1 (BAP1), endogenous (human (endogenous in PaTu8988)) (UniProt Q92560); assay: co-IP; PaTu8988 cell lysates (IP lysis buffer with PMSF and phosphatase inhibitor), primary antibody and protein A/G agarose beads at 4°C overnight, five washes, Western blot; endogenous proteins or indicated plasmids; treatments in some panels: LPS, λ-phosphatase, BAP1 knock-out and rescue, IRAK4 siRNA or overexpression

Molecule | binding [1] | binding [2] | binding [3] | also measured
BRCA1 Associated Protein-1 (BAP1), endogenous (from UniProt Q92560 1-729) | binds | binds |  | 
MyD88, endogenous (from UniProt Q99836 1-296) | binds |  | no binding | binding [4]: binds
interleukin-1 receptor-associated kinase 1 (IRAK1), endogenous (from UniProt P51617 1-712) |  |  | binds | binding [5]: binds; binding [6]: binds
wild-type (WT) BAP1, expressed from a plasmid (from UniProt Q92560 1-729) | binds |  |  | 
C91A mutated BAP1 (enzymatically inactive) (from UniProt Q92560 1-729) | binds |  |  | 
ASXL3 (from UniProt Q9C0F0 1-2248) |  | no binding |  | 
ASXL2 (from UniProt Q76L83 1-1435) |  | no binding |  | 
B1 | binds |  | no binding | binding [4]: binds
